Source: PMC5100981 (Antiviral research, 2016)

Test system: Enterovirus D68 (US/KY/14-18953 strain)
Experiment: CPE inhibition assay
Format: cell-based
Conditions: for EC50: Enterovirus D, EVD68, RD, read-out: EC50, 50% effective concentration
[1] = Enterovirus D68/US/KY/14-18593, RD cells
[2] = RD cells (Table 3 cell line comparison)

## CC(C)S(=O)(=O)n1c(N)nc2ccc(/C(=N/O)c3ccccc3)cc21 [Enviroxime, enviroxime]
[1]
  SI, selectivity index (CC50 / EC50): 306
  EC50: 0.27 ± 0.23 µM
[2]
  SI, selectivity index (CC50 / EC50): 240

## CCOC(=O)c1ccc(OCCC2CCN(c3ccc(C)nn3)CC2)cc1 [Pirodavir, pirodavir]
[1]
  SI, selectivity index (CC50 / EC50): 1.5
  EC50: 8.1 ± 3.9 µM
[2]
  SI, selectivity index (CC50 / EC50): 3.9
